B1: LINE1-full (parent)
chain: UACGUAGGUGGUUUUCCCCUGAUAGUGCUAAGGGGGCCUGGAAGUUUGGACUGGGCAGAGCUCAACACAGCGUGGCAAAGUGGCUGUGGCUAGACUGCCUCUCUGGAUUCCUCGUCACUCAGCAGGGCAUCUCUGAGAGAAAUGCC

Read counts are not given, so values of variants with three or more changes are uncertain.

Variants of B1 are the subject of the series. Kind of series: self-cleavage, relative activity (ratio to wild type); higher = more cleavage; in vitro, sequencing; the parent is a self-cleaving ribozyme.
In the case of U26C A65G U130C, the self-cleavage was found to be 0.29.

With U46C U81C U134A, the self-cleavage stood at 1.48.

U39A U85A C90U U132C: the self-cleavage was 0.08.

Turning to A50U A57G A142G, the self-cleavage is 0.59.

For the variant A24G A59G U73A, the self-cleavage stood at 0.3.

G97U U119C U134C A141G: the self-cleavage came out at 0.18.

For the variant U5C U130A A141G, the self-cleavage amounted to 2.92.

Turning to U1C U14G A42U U52A A77G A124G, the self-cleavage stood at 0.31.

For U12C A43G A117G, the self-cleavage came to 0.3.

In the case of G48A G53A A64G A67G U102C A124G U132C, the self-cleavage came out at 0.

For the variant A78G A79G A117G A142G, the self-cleavage amounted to 0.

Turning to U87C U108C U132C A138G A141G, the self-cleavage was 0.

Take A30G G33A A136G: the self-cleavage stood at 1.36.

Take A42G G89A A117G U132C: the self-cleavage came out at 0.06.

As to U20C U81C U96G, the self-cleavage was found to be 0.

As to G10A U12G U104A U115G, the self-cleavage was 0.81.

On to A24U U87C U109C A124G, for which the self-cleavage is 0.

For the variant U46C G82A A94G A107U U112C U130C U143A, the self-cleavage is 0.5.

Take G21A U47G U112A U134A: the self-cleavage came to 0.88.

As for C37U U81G A124U U143C, the self-cleavage amounted to 0.82.

For A94G U102C G144A, the self-cleavage came to 0.24.

For the variant U14A A77U A138G, the self-cleavage was found to be 1.13.

For C37A U47G A64U A124G, the self-cleavage worked out at 0.15.

Consider U12G U15C A77C, for which the self-cleavage amounted to 0.

U15A A22C U23C A77U: the self-cleavage came out at 1.29.

Turning to U9C U13C A22G A107G U119A, the self-cleavage was determined as 2.3.

With U9A G35U A67U U130A, the self-cleavage turned out to be 0.1.

Regarding A77U U104A U130C, the self-cleavage is 1.47.

Regarding A6G U109A U115C G126U, the self-cleavage was 1.16.

For the variant A67G G72A U112A A136G, the self-cleavage was found to be 0.5.

With U23G A24G A69G, the self-cleavage was 0.

Regarding A22U U52G C128G A129G C131G, the self-cleavage turned out to be 1.79.

A22G U73A A129U: the self-cleavage came to 1.32.

A30G U52A U115C A121G: the self-cleavage came out at 0.

As for A22U G32A U47C U96A, the self-cleavage came to 0.07.

Consider A59U A79G A141U, for which the self-cleavage was 0.52.

Regarding A2U U109A U143C, the self-cleavage turned out to be 0.71.

In the case of C19A U96A A107G A142G, the self-cleavage was 0.15.

As to A6U U45G A136U, the self-cleavage came out at 0.69.

Turning to G21U U45A U134C, the self-cleavage amounted to 1.23.

Consider A64C A65U A141G, for which the self-cleavage was 0.05.

A6G A69G U81A: the self-cleavage stood at 0.1.

Regarding U39C G83U A142G, the self-cleavage was 0.48.

With A65G U85A A92G U115A, the self-cleavage was determined as 0.

As for U13C G93U A117C, the self-cleavage was 0.08.

Take U85A U96C C128U U134C A142G: the self-cleavage stood at 0.08.

Take U14C A59U G83A U102C: the self-cleavage amounted to 0.5.

For the variant U20C A65G A107U U109C, the self-cleavage amounted to 0.14.

As to U46C U104G C146A, the self-cleavage is 1.84.

For the variant U39A G49U U102A, the self-cleavage turned out to be 0.56.

Regarding U46A U102A U132C, the self-cleavage turned out to be 1.37.

Consider U47A A57U U96A A136U, for which the self-cleavage is 0.53.

As to U15A A67C G83U U143C, the self-cleavage was determined as 0.01.

As to A57U U96A U115C A117U, the self-cleavage worked out at 0.68.

Regarding U45C U119A A138G, the self-cleavage came out at 1.85.

Regarding U47C U81C U130C, the self-cleavage was determined as 0.84.

For A65G A77G A140G, the self-cleavage was 0.21.

Regarding U13A G70A C99U U108C A140G, the self-cleavage came out at 0.05.

U45C A65U C90U: the self-cleavage came out at 0.01.

Consider U46C U119G A129G, for which the self-cleavage worked out at 2.63.

A64G U104C U119C: the self-cleavage stood at 0.54.

For the variant U5C A22G A57U, the self-cleavage is 0.68.

For the variant G4A A43C C116U A117G U132A, the self-cleavage was determined as 0.69.

For the variant U39A A65G A141G, the self-cleavage was 0.

On to U81A C123U U143C, for which the self-cleavage is 1.97.

Regarding A31G A57U U115C, the self-cleavage was found to be 0.

Regarding G8A U15C U87A U91C, the self-cleavage worked out at 0.

Take U39A U52G A129G A136G: the self-cleavage came to 2.12.

On to A22G A79G U96A, for which the self-cleavage is 0.1.

As for A31U A117U U119C, the self-cleavage is 1.57.

Regarding A2G U87G U112C, the self-cleavage came to 0.42.

U13C A57U C61A A65G: the self-cleavage was 0.13.

G32A A50G G106U: the self-cleavage amounted to 0.57.

On to A64G A129U A138G, for which the self-cleavage turned out to be 0.31.

Regarding U12C A64C A69G A79G, the self-cleavage came out at 0.

In the case of A6G G8A U47A, the self-cleavage amounted to 0.85.

As for A24G A42G A136G, the self-cleavage came out at 1.92.

Take U13C A64G A141G: the self-cleavage was determined as 0.25.

As for U12C A42G U45A A79G U108G, the self-cleavage is 1.53.

With U20C U73A A138U, the self-cleavage turned out to be 1.74.

As to A22G G70A A92G, the self-cleavage was 0.14.

Consider A24G A50G U52A, for which the self-cleavage was 0.95.

Consider A79G G89A A107G G126U, for which the self-cleavage was 0.02.

As for U9A A78G A142G, the self-cleavage amounted to 1.05.

As for U87A U108C A121G, the self-cleavage was found to be 0.11.

In the case of U1C U23C U115C U119C, the self-cleavage was 0.84.

Take U52C U102C A141G: the self-cleavage was 1.29.

In the case of U9C A65U A77G, the self-cleavage was 0.5.

Turning to U15A A121G A129G, the self-cleavage came out at 0.

Consider A31G A107G A117U, for which the self-cleavage amounted to 1.41.

On to U12G U102C U115A, for which the self-cleavage stood at 1.

As for U5C A79C U96C A136U, the self-cleavage is 1.97.

Turning to U14C U96C U115C, the self-cleavage was found to be 0.

As to A77U C118U A142G, the self-cleavage is 1.26.

For the variant U5G A24G U29A U46A U96C, the self-cleavage turned out to be 0.

Consider U39A U102C C118U U143C, for which the self-cleavage was 1.53.

Regarding A77U A78G A142G U143C, the self-cleavage was found to be 2.14.

As to U9A A107G A117G, the self-cleavage was determined as 1.67.

Take A65G A78G U115G U132A: the self-cleavage was 0.

For U26A U52C A79G U112C A136G, the self-cleavage amounted to 1.84.

Turning to A69G U115C A136G, the self-cleavage is 0.4.

Regarding U9C A43G A79G, the self-cleavage is 2.9.

In the case of U15C C19U U96C, the self-cleavage was determined as 0.24.

As to U13C U14C U15C, the self-cleavage amounted to 0.78.

In the case of C3U C18U A77G U119C, the self-cleavage amounted to 1.62.

For U102C U134C G135U, the self-cleavage was 1.34.

For the variant G49A U81C A141G, the self-cleavage came to 1.16.

For the variant A2G U12C G41A U62C, the self-cleavage was found to be 0.17.

In the case of A121U A142G U143C, the self-cleavage stood at 1.91.

Take U39C A67C A129G: the self-cleavage turned out to be 0.31.

On to A24U U109C A129U, for which the self-cleavage amounted to 1.6.

Regarding A24U A57G G106U, the self-cleavage came out at 0.31.

As for A6G A79G A136G, the self-cleavage was found to be 2.04.

For G97A U100C C116U A129G U132C, the self-cleavage is 0.12.

For the variant A57G U87A U96A A117U, the self-cleavage was determined as 0.04.

U12C A129G U143A: the self-cleavage is 1.71.

For the variant A59G U87A U130C, the self-cleavage came to 0.1.

As to A69U U81G U102C, the self-cleavage came to 0.06.

Regarding U9C U104A U112A, the self-cleavage is 1.53.

For the variant U5A U9C U12G A67G A138G, the self-cleavage came out at 1.31.

On to U5C U46C A129G, for which the self-cleavage amounted to 1.84.

For the variant A22G A94U A138G G144A, the self-cleavage turned out to be 0.35.

Consider U52G A94U A117G, for which the self-cleavage is 0.

On to U5A U14C U134C, for which the self-cleavage stood at 0.76.

A2U U62C A140G: the self-cleavage turned out to be 0.

For U13C A42G C90U, the self-cleavage was 0.17.

Consider A57G A117U A142G, for which the self-cleavage was 1.04.

A69U C90G A107G A124G: the self-cleavage stood at 0.

For U45C A79G A107G, the self-cleavage was 2.09.

U13C U23C U45G U130C: the self-cleavage was 1.02.

For U13C A43G A124U A142G, the self-cleavage was found to be 1.74.

Take U13A U39C C71U: the self-cleavage amounted to 0.29.

A67G U104A A142G U143C: the self-cleavage turned out to be 0.84.

A94G U100C A124U: the self-cleavage is 0.41.

In the case of A6U G35U A43G, the self-cleavage came out at 1.07.

Take G32C U45C A79G A129G: the self-cleavage was 0.

For U15C G88A A117U, the self-cleavage was 0.06.

With A22G C61A A142G, the self-cleavage was determined as 0.03.

In the case of U13C U14A U100C G139A, the self-cleavage worked out at 1.26.

A42G U132C A141G: the self-cleavage amounted to 0.

As to C71A U73G A140G A142U, the self-cleavage stood at 0.03.

For A2G U9C U15C U52A A57U, the self-cleavage amounted to 0.2.

Regarding A69G U87A A136U, the self-cleavage was 0.03.

Turning to U12G U134C A142G, the self-cleavage turned out to be 0.

In the case of C18A U26A A67G, the self-cleavage is 0.63.

As for A22G A59G U143C, the self-cleavage turned out to be 0.29.

G27A U46C A92U C98U: the self-cleavage was 0.2.

On to U20G A77G C113A, for which the self-cleavage came to 1.53.

With U13C A79G U102C, the self-cleavage was 0.38.

As to U12C U47G A65G A141G, the self-cleavage was 0.

In the case of U26A A57G A78G U91C, the self-cleavage stood at 1.15.

Take G7A U13C A136G: the self-cleavage turned out to be 1.22.

Consider U29A U47C A92U U102C, for which the self-cleavage is 0.66.

C18U A94G U112C A142G: the self-cleavage turned out to be 0.

As to U29A C103A U112C C128U, the self-cleavage was found to be 1.3.

Regarding A24G A77U U104C G126A, the self-cleavage was found to be 1.69.

As for G88A A138G A140U, the self-cleavage was 0.08.

Take U1A A64G U102C: the self-cleavage was found to be 0.

In the case of A69G G74A A124G, the self-cleavage stood at 0.12.

As to A43G U85A U134C A141G, the self-cleavage worked out at 0.1.

A22U U23C U91C: the self-cleavage is 0.37.

For A2G U85C U112C, the self-cleavage came out at 0.3.

On to U1C U13A U52C U81A U102C, for which the self-cleavage is 0.71.

C3U U39A A59G: the self-cleavage stood at 0.27.

For A22U U112C U130C, the self-cleavage was 0.84.

As for U85C C95A A129C, the self-cleavage turned out to be 0.04.

Consider A69G C71U U104C, for which the self-cleavage worked out at 0.21.

The values above are taken from the RNAGym collection of RNA variant scans (doi:10.7554/elife.90254).
